Test results as given in patent publication US20250333503A1 (published 2025).

Biological target: CPA.7.048
Test: SPR

B1: human PVRIG fusion protein (Fc fusion)
chain: TPEVWVQVRMEATELSSFTIRCGFLGSGSISLVTVSWGGPNGAGGTTLAVLHPERGIRQWAPARQARWETQSSISLILEGSGASSPCANTTFCCKFASFPEGSWEACGSLPPSSDPGLSAPPTPAPILRAD[in this place human IgG1 Fc with changes]
modifications: Biotinylated in some assays. The protein acts as a bivalent Fc dimer; one chain is given.
Q: With B1 as the binder, how does the Kd read?
A: 19 nM
